Measured values from article PMC4336329 (PLoS ONE, 2015).
The whole screen tested about 310,000 compounds, of which about 14,000 (4.5%) showed an effect of 50% or more. Effects have a minus sign here. Some of the results follow.

biological target: human ether-à-go-go-related gene (hERG) potassium channel (human, UniProt Q12809); experiment: primary screen, population patch clamp on CHO cells stably expressing hERG
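Note: peak tail current of the secondary pulse compared with the same well before compound.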

Sequence of human ether-à-go-go-related gene (hERG) potassium channel (Q12809 whole entry, looked up): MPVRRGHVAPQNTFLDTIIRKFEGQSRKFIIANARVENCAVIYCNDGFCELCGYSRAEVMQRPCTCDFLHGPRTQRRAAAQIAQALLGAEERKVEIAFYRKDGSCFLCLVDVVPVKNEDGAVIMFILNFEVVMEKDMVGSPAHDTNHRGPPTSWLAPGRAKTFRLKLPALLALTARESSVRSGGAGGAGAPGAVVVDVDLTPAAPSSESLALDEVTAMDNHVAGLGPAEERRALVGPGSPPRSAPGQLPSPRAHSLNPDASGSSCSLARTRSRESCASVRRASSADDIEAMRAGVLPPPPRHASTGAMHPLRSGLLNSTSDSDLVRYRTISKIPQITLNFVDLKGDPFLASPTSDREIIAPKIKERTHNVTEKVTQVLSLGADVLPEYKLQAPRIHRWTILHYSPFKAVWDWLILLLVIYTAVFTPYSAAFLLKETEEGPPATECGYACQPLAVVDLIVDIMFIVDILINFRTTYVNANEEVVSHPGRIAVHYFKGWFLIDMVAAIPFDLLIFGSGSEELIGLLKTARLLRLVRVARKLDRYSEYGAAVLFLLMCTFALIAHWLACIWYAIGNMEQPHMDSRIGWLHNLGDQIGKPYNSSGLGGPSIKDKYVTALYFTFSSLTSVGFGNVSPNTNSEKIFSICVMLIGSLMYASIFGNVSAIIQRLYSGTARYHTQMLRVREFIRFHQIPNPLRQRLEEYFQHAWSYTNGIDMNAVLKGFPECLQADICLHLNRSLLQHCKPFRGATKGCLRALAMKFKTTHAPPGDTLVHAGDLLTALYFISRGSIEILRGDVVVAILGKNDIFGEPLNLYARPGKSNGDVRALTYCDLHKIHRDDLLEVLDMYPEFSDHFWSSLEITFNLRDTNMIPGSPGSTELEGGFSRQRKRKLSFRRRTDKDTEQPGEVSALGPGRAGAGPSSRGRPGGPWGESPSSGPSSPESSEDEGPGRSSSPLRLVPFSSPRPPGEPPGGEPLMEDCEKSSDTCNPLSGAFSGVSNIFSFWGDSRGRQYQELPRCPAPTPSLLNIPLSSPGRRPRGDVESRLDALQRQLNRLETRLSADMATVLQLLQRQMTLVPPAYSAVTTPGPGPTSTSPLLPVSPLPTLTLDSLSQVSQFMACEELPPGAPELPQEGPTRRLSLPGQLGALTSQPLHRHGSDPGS

SMILES	hERG current change (%, negative = inhibition) at 10uM
Cc1cc(Nc2ccccc2Cl)c2ccccc2n1	-64.2%
CCOC(NC(=O)c1ccccc1)C(NC(=O)c1ccccc1)OCC (stereo not shown)	-0.069%
O=C(CCCn1c(=O)[nH]c2cc(Cl)ccc2c1=O)N1CCC2(CC1)OCCO2	-13.4%
CCOc1ccc(Nc2nc3ccccc3n3cnnc23)cc1	-7.3%
CC1CCCC(C(=O)O)N1C(=O)CCSC(=O)c1ccccc1 (stereo not shown)	-0.246%
CCN(CC)CCN(C(=O)c1ccc2ncsc2c1)c1nc2cc3c(cc2s1)OCO3.Cl	-61.8%
O=C(O)C(=O)O.O=C(c1ccccc1)c1ccc(OCCOCCN2CCN(Cc3ccccc3)CC2)cc1	-78.9%
O=C(c1ccc([N+](=O)[O-])cc1)N1CCSC1c1ccccc1Cl (stereo not shown)	7.77%
COc1cccc(OCc2nnc(SCc3cc(=O)[nH]c4ccccc34)o2)c1	-11.4%
CCOc1ccccc1NC(=O)CSc1nc(=O)n(CCCN2CCOCC2)c2c1CCCC2	-31.1%
COc1cc(N2CCOCC2)ccc1C=C1C(=O)NC(=O)NC1=O	24.6%
COc1cccc(NC(=O)c2sc(NC(=O)c3ccncc3)nc2C)c1	-8.58%
O=C(CNC(=O)c1ccccc1Br)N/N=C/c1ccc(O)cc1	11%
CN(Cc1ccccc1)C(=O)c1ccc(NC(=O)Cc2cccc(NC(=O)C3CCN(C(=O)C4CC4)CC3)c2)cc1	3.64%
CC1CN(c2ccc([N+](=O)[O-])cc2Cl)CCN1.Cl (stereo not shown)	-16.6%
Cc1ccc(NS(=O)(=O)c2ccc(C(=O)N3CCCC(C(F)(F)F)C3)cc2)cc1 (stereo not shown)	16%
CCOC(=O)Cc1csc(N/N=C\c2ccccc2OC)n1	2.26%
CCN(C1CCCCC1)S(=O)(=O)c1ccc(S(=O)(=O)NCCc2ccncc2)cc1	7.48%
CCN(CC)c1nc2ccccc2n2cnnc12	-16.4%
O=C(c1ccc(S(=O)(=O)Nc2ccccc2)cc1)N1CCC1	9.8%
COc1ccc(-c2cccc(NS(=O)(=O)c3cc([N+](=O)[O-])ccc3Cl)c2)nn1	-9.11%
COC(=O)CSc1nc2ccc(NC(=O)c3ccccc3C(=O)N3CCOCC3)cc2s1	-13.6%
O=C(COC(=O)/C=C/c1ccc(S(=O)(=O)N2CCc3ccccc32)cc1)NC1CCS(=O)(=O)C1 (stereo not shown)	6.73%
COc1ccc(OC(C)C(=O)Nc2cccnc2)cc1 (stereo not shown)	4.48%
O=C(OCCOc1ccccc1)c1n[nH]c2ccccc12	5.04%
Cc1cc2cc(CNC(=O)C3CC3)ccc2n1C	-17.3%
CSc1ncc(F)c(N(CCO)CCO)n1	10.5%
CC(OC(=O)COc1ccccc1)C(=O)NC1CCCC1 (stereo not shown)	5.47%

SMILES	hERG current change (%, negative = inhibition) at 10uM
CCCCNC(=S)Nc1cc(S(=O)(=O)N2CCCCC2)ccc1C	-0.674%
CC1CCN(CCCNC(=O)c2cn(C)c3ccc(S(=O)(=O)N4CCCC4)cc3c2=O)CC1	8.26%
CCC(CO)n1c(SCc2cc([N+](=O)[O-])cc3c2OCOC3)nc2ccccc2c1=O (stereo not shown)	-0.217%
COc1cc(CNC2CCCC2)cc(Cl)c1OCc1ccccc1Cl.Cl	-30%
COc1ccc(NC(=S)N(Cc2ccc(N(C)C)cc2)Cc2ccco2)cc1	-17.7%
CCCCNc1c(N2CCN(C(=O)OCC)CC2)c(=O)c1=O	1.29%
CCOC(=O)N1CCC(NC(=O)C(NS(=O)(=O)c2cccc3nsnc23)c2ccccc2)CC1 (stereo not shown)	-6.45%
N#Cc1c(N)nc(SCc2ccccn2)c(C#N)c1-c1cccs1	11.9%
O=[N+]([O-])c1ccc(CCNc2cccc3ccccc23)c([N+](=O)[O-])c1	5.64%
COc1cccc(NC(=S)NNC(=O)c2ccccc2OC(F)F)c1	12.3%
COc1ccc(C(=O)NCc2nnc(SCC(=O)N3CCCC3)o2)cc1	5.71%
CC(=O)NN1C(=O)c2ccccc2NC1c1ccccn1 (stereo not shown)	5.85%
COc1ccc(-c2nn(C)c(=O)c3ccccc23)cc1NC(=O)COc1ccc(C)cc1	-3.65%
O=C(NCSc1ccccc1)c1ccccc1	17.7%
COc1ccc(CNC(=O)c2c(O)c3ccccc3n(C)c2=O)cc1OC	9.52%
COc1cc(C2C3=C(CCCC3=O)Nc3ccc4ncccc4c32)ccc1O (stereo not shown)	5.67%
Cl.Fc1ccc(C(OCCN2CCCC2)c2ccc(F)cc2)cc1	-71.3%
COc1ccc(C)cc1NC(=O)CNC(=O)c1sc2ccccc2c1Cl	-4.35%
O=C(NCCc1ccc(Cl)cc1Cl)c1cc([N+](=O)[O-])c[nH]c1=O	21.8%
Cc1nn(-c2ccccc2)c(C)c1C(=O)Nc1ccc(N2CCOCC2)cc1	15.6%
O=C(NCCC(=O)N1CCN(S(=O)(=O)c2ccc(F)cc2)CC1)Nc1ccccc1	-2.23%
COc1ccc(N(CC(=O)Nc2ccc(C)c(C)c2)S(=O)(=O)c2c(C)noc2C)cc1	-3.67%
NC(=O)C1CCN(C(=O)CC(c2ccccc2)c2ccccc2)CC1	-2.39%
COc1cc(/C=C2/SC(=S)N(Cc3ccccc3)C2=O)ccc1OS(C)(=O)=O	17.8%
CCCCCCC(=O)Nc1ccc(Cl)cn1	4.18%
COc1ccc(S(=O)(=O)N2CCN(CC(=O)Nc3cc(OC)cc(OC)c3)CC2)cc1	-0.404%
Cc1ccc(C(=O)COC(=O)c2ccccc2NC(=O)c2ccccc2)cc1[N+](=O)[O-]	4.55%
